From PubChem BioAssay AID686979 (National Center for Advancing Translational Sciences (NCATS), 2013)
Among all 420,000 compounds or so, about 50,000 (12%) were called active. The inconclusive results got no clear call from the source; some entries with a clear call stand among them for comparison. Calls come from the whole dose curve; as a rule, active = well fitted inhibition curve with a large enough effect; inconclusive = small, poorly fitted or top-dose-only effect; inactive = flat fitted curve, though single readings scatter. Potencies of inconclusive entries are left out as doubtful fits.

test: qHTS for Inhibitors of human tyrosyl-DNA phosphodiesterase 1 (TDP1): qHTS in cells in presence of CPT; conditions: chicken DT40 Tdp1-/-;hTDP1 cells + 20 nM CPT, ATP luminescence, 48 h; activity change, negative = growth inhibition: at 46.2 µM (top of the series) unless noted; note: nearly all actives have a fitted effect of over 55% in size
In short: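 Chicken DT40 Tdp1-/- cells stably complemented with human TDP1 were seeded at 400 cells/well in medium containing 20 nM camptothecin, exposed to pin-transferred compounds, and grown at 37 °C for at least 48 hr. Viability was read as ATP luminescence.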
% is set by controls: 0 for no effect and ±100 for the full control effect; potency is the fitted concentration of half-maximal effect; tags give direction and shape of the fitted curve.

SMILES | Potency | activity change, negative = growth inhibition
COC(=O)[C@@]1(C)[C@H]2C(=O)N(Cc3ccccc3)C(=O)[C@H]2[C@H]2CN=C(SCC3CC3)N21 | inconclusive [inhibitor, single point] | 
Cc1ccc(-n2c(/C=C/c3c(C)n(C)c4ccccc34)nc3ccccc3c2=O)cc1 |  | inactive: 1.55%
CN(C(=O)CCn1c(=S)oc2ccccc21)C1CCCCC1 | inconclusive [inhibitor, single point] | 
O=C(O)c1ccc(NC(=S)NC(=O)c2ccc(-c3ccc(Br)cc3)o2)cc1 |  | inactive: 11.6%
COc1ccc(NC(=O)Nc2nnc(-c3cccs3)s2)cc1 | inconclusive [inhibitor, partial curve, poor fit] | 
COc1ccc(C(=O)NN(C)c2nc(C(F)(F)F)nc3ccccc23)cc1 | active: 0.184 µM | 
CC(C)COC(=O)N(C)C[C@H]1OCc2cnnn2CCCC(=O)N([C@@H](C)CO)C[C@H]1C |  | inactive: -5.89%
Cc1ccc2c(c1)N(C(=O)CSc1nncn1C)C(C)(C)c1ssc(=S)c1-2 | active: 25.9 µM | 
CCN(CC)S(=O)(=O)c1cccc(C(=O)Nc2ccccc2C(=O)Nc2ccc(Cl)cc2)c1 | inconclusive [inhibitor, single point] | 
COc1ccccc1NS(=O)(=O)c1cc(C(=O)NCCCN2CCCC2=O)ccc1C |  | inactive: -5.19%
COc1ccc(C(=O)NNC(=O)c2ccc(C)cc2)cc1S(=O)(=O)N1CCCC1 | inconclusive [inhibitor, single point] | 
COCCN(CCOC)S(=O)(=O)c1ccc(C(=O)Nc2sc3c(c2C(=O)OC)CCN(C)C3)cc1 |  | inactive: -13%
CC(=O)c1ccc(NC(=O)c2cc(C)nn2-c2ccccc2)cc1 | inconclusive [inhibitor, single point] | 
COc1cccc(C(=O)CC(=O)C(=O)Nc2cccc([N+](=O)[O-])c2C)c1 | active: 14.6 µM | 
Cc1nccn1CC(O)COc1ccc(Cl)cc1Cl (configuration not stated) | inconclusive [inhibitor, single point] | 
COc1ccc(-c2nnn(CC(=O)N(C3CCCC3)C(C)C(=O)NC3CCCC3)n2)cc1OC (configuration not stated) | inconclusive [inhibitor, single point] | 
COc1ccccc1/C=C/C(=O)c1c2c(c(C)[nH]c1=O)CCCC2 | inconclusive [inhibitor, single point] | 
O=C(Nc1ccc(C(=O)O)cc1)/C(=C\c1ccc([N+](=O)[O-])cc1)NC(=O)c1ccc(Br)cc1 |  | inactive: 2.97%
Cc1ccc2nc(CC(O)(c3ccccc3)c3ccccc3)ccc2c1 | inconclusive [inhibitor, single point] | 
Cc1ccc(S(=O)(=O)NCCC(=O)NCC(c2cccs2)N2CCOCC2)cc1 (configuration not stated) | inconclusive [inhibitor, single point] | 
Cc1ccc(NC(=O)c2ncn(CCCN3CCN(c4ncccn4)CC3)n2)cc1C | inconclusive [inhibitor, single point] | 
O=C(NCCN1CCN(c2ccccc2)CC1)C1CCN(S(=O)(=O)N2CCOCC2)CC1 | inconclusive [inhibitor, single point] | 
O=[N+]([O-])c1ccc(CSc2ncnc3c2ncn3[C@@H]2O[C@H](CO)[C@@H](O)[C@H]2O)cc1 | inconclusive [inhibitor, single point] | 
O=C1c2ccc(Cl)cc2S(=O)(=O)c2cccc(C(=O)N3CCN(c4ncc(Br)cn4)CC3)c21 | inconclusive [inhibitor, single point] | 

SMILES | Potency | activity change, negative = growth inhibition
CN(C)c1ncnc2c1ncn2C1OC(CO)C(O)C1O (configuration not stated) | active: 2.91 µM | 
COc1cccc(CNc2nc3cc(-c4ccc(C)cc4)sc3c(=O)n2C)c1OC | active: 16.4 µM | 
CC1(C)SC2c3ccccc3C(=O)N2[C@@H]1C(=O)NC1CCCC1 (some centres not stated) |  | inactive: -2.05%
COc1ccc(CNn2c(C)nc3ccccc3c2=O)cc1 |  | inactive: -27.1%
COc1ccc(C(C)=O)cc1CC1(C)C(=O)Nc2ccc(OC(F)(F)F)cc21 (configuration not stated) | inconclusive [inhibitor, single point] | 
C=CCc1cccc(OC)c1OCCOCCNCCO |  | inactive: -26.6%
O=c1sc(Nc2ccccc2)nc2ccsc12 |  | inconclusive: -30.6% [inhibitor]
CCCCN(CCCNC(=O)c1cc(Nc2cccc(SC)c2)nc2ccccc12)Cc1ccccc1 | active: 6.51 µM | 
O=C(c1ccc(Cn2cc(Cl)cn2)o1)N1CCN(Cc2ccc3c(c2)OCO3)CC1 | inconclusive [inhibitor, partial curve] | 
Cc1ccc(NC(=O)c2cc(S(=O)(=O)N3CCC4(CC3)OCCO4)ccc2F)cc1Cl | active: 8.2 µM | 
CCOc1ccc(CN2CCN(Cc3[nH]c4ccc(OC)cc4c3C)CC2CCO)cc1 (configuration not stated) | inconclusive [inhibitor, single point] | 
O=[N+]([O-])c1ccc(/C=N/Nc2nc(N3CCCCC3)nc(N3CCCCC3)n2)cc1 | inconclusive [inhibitor, single point] | 
CC[C@]12c3[nH]c4ccc(OC)cc4c3CCN1C(=O)C(CC(=O)NCCCOC)C[C@@H]2C(=O)N1CCN(C(=O)c2ccco2)CC1 (some centres not stated) |  | inactive: 9.56%
CCN1C(=O)C(CC(=O)Nc2ccc(F)cc2)N(Cc2ccc3c(c2)OCO3)C1=S (configuration not stated) | inconclusive [inhibitor, single point] | 
O=c1[nH]c(SCc2c(F)cccc2Cl)nc2c1CCC2 | inconclusive [inhibitor, single point] | 
COC(=O)c1c(NC(=O)COC(=O)c2ccc(C)s2)sc2c1CCCCC2 |  | inactive: -14.6%
C=CCn1c(O)c(N=NC(=O)OCC)c2ccccc21 | inconclusive [inhibitor, partial curve] | 
CCc1nc(N2CCN(C(=O)CCCl)CC2)c2c3c(sc2n1)CCCC3 | inconclusive [inhibitor, single point] | 
COc1ccccc1CNC(=O)c1ccccc1OC |  | inactive: -21.3%
CCN(CC)CCN(C(=O)c1ccc(C(=O)c2ccccc2)cc1)c1nc2ccc(OC)cc2s1 |  | inactive: 2.46%
Cc1cccc(-n2c(C)cc(C(=O)C(=O)Nc3ccccc3F)c2C)c1C | inconclusive [inhibitor, single point] | 
O=C(O)c1cn(-c2ccccc2)nc1-c1ccc(F)cc1 |  | inactive: 1.26%
CCN(CC(=O)Nc1c(F)cccc1F)C(=O)c1ccc(Cl)c(S(=O)(=O)N2CCCCC2)c1 |  | inactive: -26.8%
CCOc1ccc(-c2cccc(NS(=O)(=O)c3ccc(F)cc3F)c2)nn1 |  | inconclusive: -30.7% [inhibitor]

SMILES | Potency | activity change, negative = growth inhibition
O=C(COC(=O)CCOc1ccccc1)Nc1ncc(Cl)cc1Cl |  | inactive: -3.06%
Cc1cccc(C(=O)Nc2nnc(S(=O)(=O)N(C)Cc3ccccc3)s2)c1 | inconclusive [inhibitor, single point] | 
COc1cc(-c2nc3ccc(C)cn3c2NCc2ccccc2)ccc1-c1cccc(Cl)c1 | inconclusive [inhibitor, single point] | 
O=C(CN1CCCCCC1)N1c2ccccc2C=Cc2ccccc21 |  | inconclusive: -34.2% [inhibitor]
COc1ccc2sc(-c3ccc(S(C)(=O)=O)cc3)c(-c3ccc(SC)cc3)c2c1 | active: 25.9 µM | 
Cc1ccccc1C(=O)N1CCC(C(=O)Oc2ccc(C#N)cc2)CC1 | inconclusive [inhibitor, single point] | 
Cc1ccc(S(=O)(=O)CC(=O)Nc2nc3c(C)cc(C)cc3s2)cc1 | inconclusive [inhibitor, single point] | 
O=Cc1coc2ccc3ccccc3c2c1=O |  | inactive: -0.478%
O=[N+]([O-])c1ccccc1-c1ccc(C(=S)N2CCCC2)o1 | active: 25.9 µM | 
COc1ccccc1CNC(=O)COC(=O)c1sc(C)nc1C |  | inactive: -9.67%
Nc1ncncc1-c1ccccc1Cl |  | inactive: 2.63%
O=C(Cn1cc(C(=O)c2cccs2)c2ccccc21)NCc1ccc2c(c1)OCO2 | inconclusive [inhibitor, single point] | 
O=C(NCCCO)NC12CC3CC(CC(C3)C1)C2 |  | inactive: -24.5%
CCCOc1ccc(C2c3c(-c4ccccc4O)n[nH]c3C(=O)N2CCc2ccccc2)cc1OCC (configuration not stated) | active: 11.6 µM | 
COC(=O)[C@]12CCCCC=C1N(Cc1ccc3c(c1)OCO3)C(=O)[C@H](CC(=O)N1CCCC1)C2 | inconclusive [inhibitor, single point] | 
CC(=O)c1cccc(NC(=O)c2cc(-c3ccc(F)cc3)on2)c1 |  | inconclusive: -32.3% [inhibitor]
CN1C(=O)CC2(C)C1=CCc1scnc12 (configuration not stated) |  | inactive: 7.34%
NC(=O)c1sc2nc3c(c(-c4cccnc4)c2c1N)CCC3 | inconclusive [inhibitor, single point] | 
CCOc1ccc(CNC(=O)c2ccc(Sc3ccc(C)cc3)c(NC(C)=O)c2)cc1 | inconclusive [inhibitor, single point] | 
COc1cccc(NC(=O)c2cccc3c(=O)c4c([nH]c23)CCCC4)c1 | inconclusive [inhibitor, single point] | 
NC(=O)CCS(=O)(=O)CCN1CCCCC1 |  | inactive: 10.5%
COc1ccc(-n2cnc3cc(NCc4cccs4)ccc32)cc1 | inconclusive [inhibitor, single point] | 
CCOC(=O)c1cc2c(c(-c3cccc(-c4cc5ccccc5o4)c3)n1)[C@@H](CCO)N(S(=O)C(C)(C)C)C2 (some centres not stated) |  | inactive: -20%
COc1ccc(-c2nc3ccccc3o2)cc1OC | inconclusive [inhibitor, partial curve, poor fit] | 
